Results taken from the supplement of paper PMC4604168 (melanoma cell lines).
Some of the results follow. Repeats are few or missing, and single values can be far off.

Tested on: WM1716
Experiment: cell count relative to DMSO control; melanoma cells; higher = more viable cells
Settings: library dose: low library concentration; 72 h
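Note: cell number obtained by counting DAPI-stained nuclei in high-throughput microscope images with image analysis software, screen run in 1,536-well plates.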

Compound | cell count [%]
COCC[n+]1c2c(n(Cc3cnccn3)c1C)C(=O)c1ccccc1C2=O + COc1cc2c(Oc3ccc4[nH]c(C)cc4c3F)ncnc2cc1OCCCN1CCCC1 [cediranib] (first compound 0.0004 µM, partner dose 0.4 µM) | 87.7
O=C(CCCCCCC(=O)Nc1ccccc1)NO [vorinostat] + COc1ccc(COc2ccc(Cc3cnc(N)nc3N)cc2OC)cc1 [GW2580] (first compound 0.08 µM, partner dose 1 µM) | 126
C#Cc1cccc(Nc2ncnc3cc(OCCOC)c(OCCOC)cc23)c1 [erlotinib] + O=C(O)C(=O)Nc1sc2c(c1C(=O)O)CCNC2 [TCS401] (first compound 0.8 µM, partner dose 1.66667 µM) | 94.3
Cn1c(Nc2ccc(C(F)(F)F)cc2)nc2cc(Oc3ccnc(-c4ncc(C(F)(F)F)[nH]4)c3)ccc21 + COC(=O)c1sccc1S(=O)(=O)Nc1ccc(Nc2ccccc2)cc1OC [GSK0660] (first compound 0.08 µM, partner dose 1 µM) | 71.1
COCC[n+]1c2c(n(Cc3cnccn3)c1C)C(=O)c1ccccc1C2=O + Nc1cccc2c1CN(C1CCC(=O)NC1=O)C2=O [lenalidomide] (first compound 0.0004 µM, partner dose 1 µM) | 86.6
Cn1c(Nc2ccc(C(F)(F)F)cc2)nc2cc(Oc3ccnc(-c4ncc(C(F)(F)F)[nH]4)c3)ccc21 + COCC[n+]1c2c(n(Cc3cnccn3)c1C)C(=O)c1ccccc1C2=O [YM155] (first compound 0.08 µM, partner dose 0.0004 µM) | 76.8
O=C(CCCCCCC(=O)Nc1ccccc1)NO [vorinostat] + NCC(=O)Nc1ccc(-n2nc(C(F)(F)F)cc2-c2ccc3c(ccc4ccccc43)c2)cc1 [OSU03012] (first compound 0.08 µM, partner dose 1 µM) | 108
Cn1c(Nc2ccc(C(F)(F)F)cc2)nc2cc(Oc3ccnc(-c4ncc(C(F)(F)F)[nH]4)c3)ccc21 + O=C(CCCCCCC(=O)Nc1ccccc1)NO [vorinostat] (first compound 0.08 µM, partner dose 0.08 µM) | 83.6
Nc1cccc2c1CN(C1CCC(=O)NC1=O)C2=O (stereo unspecified) [lenalidomide] + CN(NC(=O)CC(=O)NN(C)C(=S)c1ccccc1)C(=S)c1ccccc1 [STA4783] (first compound 1 µM, partner dose 0.006 µM) | 80.3
C#Cc1cccc(Nc2ncnc3cc(OCCOC)c(OCCOC)cc23)c1 [erlotinib] + COc1cc2ncnc(Nc3ccc(Oc4ccccc4)cc3)c2cc1OC [SrcI1] (first compound 0.8 µM, partner dose 2 µM) | 108
Cn1c(Nc2ccc(C(F)(F)F)cc2)nc2cc(Oc3ccnc(-c4ncc(C(F)(F)F)[nH]4)c3)ccc21 + Cc1ccc(NC(=O)c2cccc(N(C)C)c2)cc1NC(=O)c1ccc(O)cc1 [ZM336372] (first compound 0.08 µM, partner dose 2 µM) | 71.2
Clc1ccc(Nc2nnc(Cc3ccncc3)c3ccccc23)cc1 [vatalanib] + CCCCCCCCCCCC1=C(O)C(=O)C=C(O)C1=O [Embelin] (first compound 2 µM, partner dose 1.2 µM) | 92.1
Nc1cccc2c1CN(C1CCC(=O)NC1=O)C2=O (stereo unspecified) [lenalidomide] + O=C(CCCCCCC(=O)Nc1ccccc1)NO [vorinostat] (first compound 1 µM, partner dose 0.08 µM) | 102
O=C(CCCCCCC(=O)Nc1ccccc1)NO [vorinostat] + O=S(=O)(c1ccccc1)N(CC(F)(F)F)c1ccc(C(O)(C(F)(F)F)C(F)(F)F)cc1 [T0901317] (first compound 0.08 µM, partner dose 1.4 µM) | 116
OCc1c[nH]c2ccccc12 [Indole-3-carbinol] + COCC[n+]1c2c(n(Cc3cnccn3)c1C)C(=O)c1ccccc1C2=O [YM155] (first compound 0.8 µM, partner dose 0.0004 µM) | 97.2
COCC[n+]1c2c(n(Cc3cnccn3)c1C)C(=O)c1ccccc1C2=O + C=CCn1c(=O)c2cnc(Nc3ccc(N4CCN(C)CC4)cc3)nc2n1-c1cccc(C(C)(C)O)n1 [MK1775] (first compound 0.0004 µM, partner dose 0.02 µM) | 87.9
